Results taken from PubChem BioAssay AID504706 (National Center for Advancing Translational Sciences (NCATS), 2011).
Screen size: about 320,000 compounds; about 200 (0.062%) were called active. Inconclusive results, whose numbers are uncertain, are shown with a selection of clear calls. The call rests on the fitted dose curve; in most records, active means well fitted activation curve with a large enough effect; inconclusive means small, poorly fitted or top-dose-only effect; inactive means no such curve, though single readings can be large or run the other way. No potency is given beside an inconclusive call; the fits are too rough.

Experiment: qHTS assay for re-activators of p53 using a Luc reporter; further: nearly all actives have a fitted effect of over 45% in size
Details: H1299 p53-A138V BP100-luciferase reporter, luminescence, 24 h; series mostly up to 92.2 µM
How it was run: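 H1299 (p53-null), stable ts p53-A138V + BP100-Luc; 1000 cells/well, Opti-MEM/10% FBS; cpd 4 pt, 1:5; 24 h, 37 deg C, 5% CO2; detection reagent 10 min RT; luminescence.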
Potency means the concentration at half of the fitted maximal effect; tags describe the fitted curve by direction and shape.

Q: For `COc1cccc(/C=C2\CCc3ccccc3C2=O)c1`, which Potency is on record?
A: inconclusive [activator, partial curve, poor fit]

Q: For `Cn1c(=O)c2c(nc(-c3ccccc3)n2C)n(Cc2ccccc2)c1=O`, which Potency is on record?
A: inconclusive [activator, single point]

Q: With `O=C(Nc1nc(-c2ccccn2)cs1)c1ccc(-c2ccccc2F)o1` as the compound, how does the Potency read?
A: inactive

Q: Which Potency does the source give for `O=C(O)CCCCCNS(=O)(=O)c1cccc2c1C(=O)c1ccccc1C2=O` here?
A: inactive

Q: For `N#CC(Cc1ccc(OC(F)F)cc1)c1nc2ccccc2[nH]1` (stereo unspecified), which Potency is on record?
A: inconclusive [activator, partial curve, poor fit]

Q: With `O=C(c1csc2ccccc12)n1cccn1` as the compound, how does the Potency read?
A: inconclusive [activator, partial curve, poor fit]

Q: Which Potency does the source give for `O=C(COc1ccccc1Cl)NC(=O)NC1CCCC1` here?
A: inconclusive [activator, partial curve, poor fit]

Q: Which Potency does the source give for `Cc1cc(Nc2ccccc2)n(-c2ccccc2)n1` here?
A: inactive

Q: For `CCCN1C(=O)/C(=C/c2c(NCCCOCC)nc3c(C)cccn3c2=O)SC1=S`, which Potency is on record?
A: inconclusive [activator, partial curve, poor fit]

Q: Which Potency does the source give for `Cc1c(C(=O)NCC2CCCO2)oc2ccc3c(c12)C(=O)CC(C)(C)O3` (stereo unspecified) here?
A: inconclusive [activator, partial curve, poor fit]

Q: With `Clc1ccc(/C=C/c2ncc3ccccn23)cc1` as the compound, how does the Potency read?
A: inactive

Q: Which Potency does the source give for `O=C(N/N=C/c1ccc([N+](=O)[O-])o1)c1cn(-c2ccccc2)nc1-c1ccc(Cl)cc1` here?
A: inactive

Q: For `CCOc1cc2[nH]c(=S)n(CCc3ccc(OC)c(OC)c3)c(=O)c2cc1OCC`, which Potency is on record?
A: inactive

Q: With `O=C(COC(=O)c1ccccn1)c1ccc([N+](=O)[O-])cc1` as the compound, how does the Potency read?
A: inconclusive [activator, single point]

Q: With `COc1ccc(C2=Nc3ccccc3OC2)cc1` as the compound, how does the Potency read?
A: inconclusive [activator, partial curve, poor fit]

Q: With `Cc1ccc(C(=O)Nc2ccc3c(c2)CCC3)o1` as the compound, how does the Potency read?
A: inconclusive [activator, partial curve, poor fit]

Q: Which Potency does the source give for `C=CCNC(=O)/C(=C\c1ccc(OC)cc1)NC(=O)c1ccc([N+](=O)[O-])cc1` here?
A: inactive

Q: Which Potency does the source give for `Cc1ccc(-c2nc(-c3ccncc3)no2)c(C)c1` here?
A: inconclusive [activator, partial curve, poor fit]

Q: Which Potency does the source give for `Cc1ccc(-c2csc(NC(=O)c3c(C)noc3C)n2)s1` here?
A: inconclusive [activator, partial curve, poor fit]

Q: Which Potency does the source give for `Cc1ccc(NC(=O)c2cncc(Br)c2)cc1S(=O)(=O)N(C)C` here?
A: inconclusive [activator, partial curve, poor fit]

Q: For `COc1cccc(CN2CCC(n3nccc3NC(=O)CCCc3ccccc3)CC2)c1`, which Potency is on record?
A: inconclusive [activator, single point]

Q: For `CC(=O)c1cccc(NC(=O)N2CCCC2C(=O)NC2CCCC2)c1` (stereo unspecified), which Potency is on record?
A: inactive

Q: For `C/C(=N\Nc1ccc(F)cc1F)c1ccc(Br)s1`, which Potency is on record?
A: inactive

Q: Which Potency does the source give for `CN(C)c1ccc(/C=C2\CCCCC2=O)cc1` here?
A: inconclusive [activator, partial curve, poor fit]

Q: For `O=C(NCCC1CCCCN1S(=O)(=O)c1ccc(Cl)cc1)C(=O)NCc1ccncc1` (stereo unspecified), which Potency is on record?
A: inactive

Q: With `Cc1cc(C)c(NC(=O)C2=COCCO2)c(C)c1` as the compound, how does the Potency read?
A: inconclusive [activator, single point]

Q: With `Cc1snc(SCc2c(F)cccc2Cl)c1C#N` as the compound, how does the Potency read?
A: inconclusive [activator, single point]

Q: For `COCCNC(=S)NN(c1ccccc1)c1ccccc1`, which Potency is on record?
A: inactive

Q: With `Cn1nccc1C(=O)N/N=C/c1c(O)ccc2ccccc12` as the compound, how does the Potency read?
A: inconclusive [activator, partial curve, poor fit]

Q: For `O=c1cc(Nc2ccc3c(c2)OCCO3)[nH]c(=O)n1-c1ccc(Cl)cc1`, which Potency is on record?
A: inconclusive [activator, partial curve, poor fit]

Q: Which Potency does the source give for `Cc1ccc(CONC(=O)c2ccc(C)cc2)cc1` here?
A: inconclusive [activator, partial curve, poor fit]

Q: For `CC1CCN(CCn2c(=S)[nH]c3ccccc3c2=O)CC1`, which Potency is on record?
A: inconclusive [activator, partial curve, poor fit]

Q: With `O=C(COc1ccccc1)Nc1ccc(-c2nnc(-c3ccco3)o2)cc1` as the compound, how does the Potency read?
A: inactive

Q: For `Cc1csc(NC(=O)c2nn(C)c(C)c2[N+](=O)[O-])n1`, which Potency is on record?
A: inconclusive [activator, partial curve, poor fit]

Q: Which Potency does the source give for `Cc1ccccc1-c1nc2sc3c(c2c(=O)n1N)CCCC3` here?
A: inconclusive [activator, full curve, poor fit]

Q: With `Cc1ccc(C=Nc2cc([N+](=O)[O-])ccc2C)s1` as the compound, how does the Potency read?
A: inactive

Q: For `CCCCn1c(N)c(N(CCOC)C(=O)CN2C(=O)C3CCCCC3C2=O)c(=O)[nH]c1=O` (stereo unspecified), which Potency is on record?
A: inconclusive [activator, single point]

Q: With `COc1ccc(-c2noc(N(C)CC(=O)Nc3cccc(C(F)(F)F)c3)n2)cc1` as the compound, how does the Potency read?
A: inactive

Q: With `COc1ccc(NC(=O)/C(=C\c2ccc3c(c2)OCO3)NC(C)=O)cc1` as the compound, how does the Potency read?
A: inconclusive [activator, partial curve, poor fit]

Q: Which Potency does the source give for `Cc1c(/C(O)=C2/C(=O)C(=O)N(CCN3CCOCC3)C2c2ccccn2)cnn1-c1ccccc1` (stereo unspecified) here?
A: inactive

Q: For `CCc1cc2c(=O)[nH]c(-c3ccccn3)nc2s1`, which Potency is on record?
A: inconclusive [activator, full curve, poor fit]

Q: With `Cc1cccc(-n2nnc(C(=O)N3CCc4ccccc4C3)c2N)c1` as the compound, how does the Potency read?
A: inactive

Q: For `COc1ccc(N2CCN(c3nc(C)c(C)c(=O)[nH]3)CC2)cc1`, which Potency is on record?
A: inconclusive [activator, single point]

Q: For `O=C(c1ccccc1)c1cccc(NC(=O)c2ccco2)c1`, which Potency is on record?
A: inconclusive [activator, partial curve, poor fit]

Q: Which Potency does the source give for `CC1=NN(c2ccccc2)C(=O)/C1=C\c1cn(C)c2ccccc12` here?
A: inactive

Q: Which Potency does the source give for `CCCc1nc2oc3c(NCC4CCCO4)ncnc3c2c2c1COC(C)(C)C2` (stereo unspecified) here?
A: inactive

Q: With `Cc1ccc(N2CCN(/N=C/c3ccncc3)CC2)cc1` as the compound, how does the Potency read?
A: inactive

Q: Which Potency does the source give for `N#Cc1ccccc1OCCN1C(=O)c2ccccc2C1=O` here?
A: inconclusive [activator, partial curve, poor fit]

Q: With `Cc1cnc(NC(=O)CSc2nnc(-c3ccccc3)o2)s1` as the compound, how does the Potency read?
A: inconclusive [activator, full curve, poor fit]

Q: For `[O-]/[N+](=C\c1ccco1)c1ccc(Cl)cc1`, which Potency is on record?
A: inconclusive [activator, partial curve, poor fit]

Q: For `Cc1ncsc1C(=O)Nc1nc2c(s1)CCCC2`, which Potency is on record?
A: inconclusive [activator, partial curve, poor fit]

Q: With `COc1cc(NC(=O)Cn2nc(C(F)(F)F)c(Br)c2C)cc([N+](=O)[O-])c1` as the compound, how does the Potency read?
A: inactive

Q: Which Potency does the source give for `COc1ccc(NC(=S)c2ccc3ccccc3n2)cc1` here?
A: inconclusive [activator, partial curve, poor fit]

Q: Which Potency does the source give for `Cc1cc(/C=C\c2ccccc2)nc2ccccc12` here?
A: inactive

Q: With `Cc1ccc(-c2nn(-c3ccccc3)cc2C=O)o1` as the compound, how does the Potency read?
A: inconclusive [activator, full curve]

Q: For `CCn1c(SCC(=O)Nc2ccc3c(c2)OCO3)nnc1C(C)C`, which Potency is on record?
A: inconclusive [activator, single point]

Q: Which Potency does the source give for `O=C(/C=C/c1ccc(Cl)c(Cl)c1)NCc1ccco1` here?
A: inactive

Q: For `CC(=O)c1c(C)[nH]c(C(=O)COC(=O)c2cccnc2Cl)c1C`, which Potency is on record?
A: inconclusive [activator, full curve]

Q: With `CC(=O)Nc1cccc(NC(=O)c2cc3ccccc3o2)c1` as the compound, how does the Potency read?
A: inconclusive [activator, partial curve, poor fit]

Q: With `O=C(OCc1cccc(F)c1)c1ccc2c(c1)-c1ccccc1C2=O` as the compound, how does the Potency read?
A: inconclusive [activator, partial curve, poor fit]

Q: Which Potency does the source give for `COc1ccccc1Nc1nc(N)nc(CSC(=S)N2CC(C)CC(C)C2)n1` (stereo unspecified) here?
A: inconclusive [activator, full curve, poor fit]

Q: With `C/C(NC(=O)c1cccs1)=C1\C(=O)C[C@@H]2[C@H]1C2(C)C` as the compound, how does the Potency read?
A: inconclusive [activator, partial curve, poor fit]

Q: Which Potency does the source give for `Cc1nn(CCC#N)c2nc(-c3ccccc3)cc(C(F)(F)F)c12` here?
A: inactive

Q: With `O/N=C1/CC/C(=N\O)c2nn(-c3ccccc3)nc21` as the compound, how does the Potency read?
A: inconclusive [activator, partial curve, poor fit]

Q: With `O=C(NCc1ccccn1)c1ccc(Cl)cc1Cl` as the compound, how does the Potency read?
A: inconclusive [activator, partial curve, poor fit]

Q: For `COc1ccc2nc(NC(=O)CN3C(=O)NC4(CCCCC4)C3=O)sc2c1`, which Potency is on record?
A: inactive

Q: For `COc1cc(NC(=O)c2cc3sccc3n2C)cc(OC)c1`, which Potency is on record?
A: inconclusive [activator, partial curve, poor fit]

Q: For `Cc1ccc(NC(=O)CCc2ccccc2)cc1S(=O)(=O)N1CCOCC1`, which Potency is on record?
A: inactive

Q: For `CC(C)Sc1ncnc2c1cnn2-c1ccccc1`, which Potency is on record?
A: inconclusive [activator, partial curve, poor fit]

Q: For `CC(=O)c1c(C)[nH]c(C(=O)Nc2ccc(Cl)c(S(=O)(=O)N(C)C)c2)c1C`, which Potency is on record?
A: inactive

Q: For `O=C(Nc1ccc2c(c1)OCO2)c1ccc(NC2CC2)c([N+](=O)[O-])c1`, which Potency is on record?
A: inconclusive [activator, partial curve, poor fit]
